# Assay results published in PubChem BioAssay (EPA / NIEHS).
# Only a part is listed here, and it is no random draw. Inconclusive results are not listed. The source made the active and inactive calls. The calls were made as follows, unless noted: active = hit-call score of the fitted dose curve at least 0.9, where 1 is the maximum; inactive = score below 0.9.
# Assays:
# [1] = target: Peroxisome proliferator-activated receptor gamma (Homo sapiens) (UniProt P37231); assay: ATG_PPARg_TRANS: Attagene TRANS-FACTORIAL HepG2 Assay for human Peroxisome Proliferator-activated Receptor-gamma (PPARg) (AID 2283007; active = hit-call score of the fitted dose curve at least 0.9, where 1 is the maximum)
# Chain of UniProt P37231 (P37231 whole entry, looked up): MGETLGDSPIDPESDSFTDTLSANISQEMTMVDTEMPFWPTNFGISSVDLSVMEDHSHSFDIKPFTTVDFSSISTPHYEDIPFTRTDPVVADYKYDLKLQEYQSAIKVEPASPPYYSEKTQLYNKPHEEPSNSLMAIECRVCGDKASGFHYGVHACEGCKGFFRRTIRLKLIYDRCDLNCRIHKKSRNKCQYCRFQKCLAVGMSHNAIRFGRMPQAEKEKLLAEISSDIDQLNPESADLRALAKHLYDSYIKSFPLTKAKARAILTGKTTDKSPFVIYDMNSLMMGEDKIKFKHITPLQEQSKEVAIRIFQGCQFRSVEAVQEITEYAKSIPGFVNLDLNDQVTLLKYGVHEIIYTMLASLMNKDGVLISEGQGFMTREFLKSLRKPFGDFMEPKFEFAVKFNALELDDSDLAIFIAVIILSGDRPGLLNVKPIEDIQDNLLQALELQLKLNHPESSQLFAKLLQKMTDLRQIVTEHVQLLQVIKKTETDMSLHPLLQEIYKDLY
# In short: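 Twenty-four hours after chemical dosing of transiently transfected HepG2 cells, isolated RNA was converted to cDNA, reporter sequences amplified and 6-FAM-labelled, then HpaI-digested and analysed by capillary electrophoresis. Signal increase against DMSO was fitted.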
# [2] = read-out: DNA damage-inducible transcript 3 (DDIT3), DDIT3 (gene 1649); assay: LTEA_HepaRG_DDIT3: Life Technologies and Expression Analysis (LTEA) Assay for DNA damage-inducible transcript 3 (DDIT3) using HepaRG (AID 2283488); details: actives raise or lower the signal; mRNA level, 48 h
# In short: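 Cells are human HepaRG liver cells treated for 48 h with eight half-log concentrations up to 100 uM in 0.5% DMSO. Transcript levels come from qRT-PCR normalized to three housekeeping genes, with activity fitted in both directions relative to vehicle.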
# [3] = read-out: NAD(P)H dehydrogenase [quinone] 1 (NQO1), NQO1 (gene 1728); assay: LTEA_HepaRG_NQO1: Life Technologies and Expression Analysis (LTEA) Assay for NAD(P)H dehydrogenase [quinone] 1 (NQO1) using HepaRG (AID 2283526); details: actives raise or lower the signal; mRNA level, 48 h
# In short: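 Transcript induction or suppression is quantified by qRT-PCR in human HepaRG liver cells dosed for 48 hours. Eight half-log concentrations topping at 100 uM are used, with 0.5% DMSO as vehicle and baseline.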
compound,measurement,setting,value
CCC(C)n1c(=O)[nH]c(C)c(Br)c1=O (stereo not drawn),outcome,[1],inactive
same,AC50,[2],active: 9.92 µM
same,outcome,[3],inactive
